Some of the results follow. Further columns of the screen follow, without active or inactive calls.

Holding throughout (experiment): Primary Screen for Target Class Profiling of Small Molecule Inhibitors of Methyltransferases
Assay [1] concerns the target Glycine N-methyltransferase (Homo sapiens) (UniProt Q14749). Conditions: purified enzyme, MTase-Glo SAH luminescence; measured here: GNMT inhibition; at 40 µM; stronger effect = lower value. In short, it runs like this: (§1)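 Each enzyme was assayed with SAM and its substrate. SAH formation detected by MTase-Glo luminescence; single-point 40 uM screen[…].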
Assay [2] concerns the target Guanidinoacetate N-methyltransferase (Homo sapiens) (UniProt Q14353). Conditions: purified enzyme, MTase-Glo SAH luminescence; measured here: GAMT inhibition; at 40 µM; stronger effect = lower value. In short, it runs like this: as §1
Assay [3] has as its target Histamine N-methyltransferase (Homo sapiens) (UniProt P50135). Conditions: purified enzyme, MTase-Glo SAH luminescence; measured here: HNMT inhibition; at 40 µM; stronger effect = lower value. The procedure, abridged: as §1
In assay [4] the target is Nicotinamide N-methyltransferase (Homo sapiens) (UniProt P40261). The note with it: purified enzyme, MTase-Glo SAH luminescence; measured here: NNMT inhibition; at 40 µM; stronger effect = lower value. The procedure, abridged:
as §1

Assay [5] concerns the target Phenylethanolamine N-methyltransferase (Homo sapiens) (UniProt P11086). The note with it: purified enzyme, MTase-Glo SAH luminescence; measured here: PNMT inhibition; at 40 µM; stronger effect = lower value. The procedure, abridged:
as §1
% is set by controls: 0 for no effect and ±100 for the full control effect.

Turning to `CCc1ccc(C2c3cccn3-c3ccccc3CN2C(=O)Nc2ccc(OC)cc2)cc1` (stereo not given), the activity change, negative = inhibition in assay [1] stood at 14.6%; in assay [2], 2.5%; in assay [3] it was 5.78%; in assay [4] it was 10.3%; in assay [5], 10.2%.
In the same order, the values of `OCc1cnc[nH]1` are 3.41%, 7.43%, 3.51%, -4.97% and 4.81%.
For `O=C(O)CC[N+](=O)[O-]`, the activity change, negative = inhibition in assay [1] amounted to 4.91%; in assay [2], 12.6%; in assay [3] it was 4.93%; in assay [4], 1.14%; in assay [5], 9.48%.
As to `O=C(NCc1ccccc1)N1Cc2ccccc2-n2cccc2C1c1ccc(Cl)cc1` (stereo not given), the activity change, negative = inhibition in assay [1] is 2.21%; in assay [2], 3.1%; in assay [3], 4.29%; in assay [4] it was 4.37%; in assay [5], 4.87%.
The matching figures for `CCOC(=O)CNC(=O)N1Cc2ccccc2-n2cccc2C1c1ccccc1Cl` (stereo not given): -1.56%, -8.49%, -4.16%, -15.7% and -5.42%.
Turning to `CCc1ccc(C2c3cccn3-c3ccccc3CN2C(=O)NCCCOC)cc1` (stereo not given), the activity change, negative = inhibition in assay [1] is 7.03%; in assay [2], 2.53%; in assay [3], 1.35%; in assay [4], -8.2%; in assay [5], 8.26%.
For the compound `COC1=CC(=O)O[C@@H](/C=C/c2ccccc2)C1`, the activity change, negative = inhibition was -1.4% in assay [1]; -6.97% in assay [2]; 7.51% in assay [3]; -18.2% in assay [4]; 2.8% in assay [5].
In the same order, the values of `O=C1CN=C(c2cccc(Br)c2)c2oc3ccccc3c2N1` are -10.8%, 8.46%, -3.54%, -45.4% and -2.47%.
Turning to `COc1cc(O)c2c(c1)CCC[C@@H](O)[C@H](O)C(=O)/C=C\C[C@H](C)OC2=O`, the activity change, negative = inhibition in assay [1] is -20.7%; in assay [2], -8.24%; in assay [3], 0.664%; in assay [4] it was -13.8%; in assay [5], -8.93%.
For `Cc1ccc(NC(=O)N2Cc3ccccc3-n3cccc3C2c2ccccc2)cc1F` (stereo not given), the activity change, negative = inhibition in assay [1] turned out to be 11.4%; in assay [2] it was 0%; in assay [3] it was 8.43%; in assay [4] it was 6.9%; in assay [5], 7.26%.
The matching figures for `CCN1C[C@@]2(COC)C3[C@@H](OC)C4[C@@H]1C3([C@@H]1C[C@]3(O)[C@H](OC(=O)c5ccccc5)[C@@H]1[C@]4(OC(C)=O)[C@@H](O)[C@@H]3OC)[C@H](OC)C[C@H]2O`: 4.88%, 13.3%, 5.94%, -0.325% and 10.5%.
Regarding `CCOC(=O)Cc1ccc(NC(=O)N2Cc3ccccc3-n3cccc3C2c2ccccc2C)cc1` (stereo not given), the activity change, negative = inhibition in assay [1] amounted to 9.72%; in assay [2], 0.823%; in assay [3], 2.99%; in assay [4], 3.77%; in assay [5] it was 6.48%.
The matching figures for `CN1C[C@H](CNC(=O)OCc2ccccc2)C[C@@H]2c3cccc4c3c(cn4C)C[C@H]21`: -32.5%, 5.42%, 5.2%, -10.6% and -35.5%.
In the same order, the values of `O=C(NC1CCCC1)N1Cc2ccccc2-n2cccc2C1c1ccc(Cl)cc1` (stereo not given) are 0.546%, 3.72%, 5.36%, -2.85% and 10.1%.
With `COCCCNC(=O)N1Cc2ccccc2-n2cccc2C1c1ccc(F)cc1` (stereo not given), the activity change, negative = inhibition in assay [1] is 0.04%; in assay [2], 0%; in assay [3], -1.18%; in assay [4], 3.64%; in assay [5] it was 2.16%.
Consider `COc1ccc(C)cc1NC(=O)N1Cc2ccccc2-n2cccc2C1c1ccc(N(C)C)cc1` (stereo not given), for which the activity change, negative = inhibition in assay [1] was 7.75%; in assay [2], 0.502%; in assay [3] it was 3.35%; in assay [4], 1.72%; in assay [5], 7.18%.
The matching figures for `CCOC(=O)c1cccc(NC(=O)N2Cc3ccccc3-n3cccc3C2c2ccc(C)cc2)c1` (stereo not given): -1.67%, -2.25%, -5.06%, -3.85% and -5.55%.
The matching figures for `Cc1[nH]c2ccc(Cl)cc2c1CCN(C)C`: 2.86%, 8.87%, -51%, -9.08% and 4.33%.
The matching figures for `CCOc1ccc(C2c3cccn3-c3ccccc3CN2C(=O)NCCC(C)C)cc1` (stereo not given): 2.81%, 0.538%, 7.65%, 6.12% and 10.1%.
In the case of `Cc1ccc([C@H]2CN(C(=O)CN3C(=O)CNC3=O)[C@@H]3C4CCN(CC4)[C@H]23)cc1`, the activity change, negative = inhibition in assay [1] is -7.06%; in assay [2], -11.5%; in assay [3], -6.12%; in assay [4] it was -14.3%; in assay [5] it was 6.3%.
In the same order, the values of `Cc1ccc(C2c3cccn3-c3ccccc3CN2C(=O)Nc2ccc(F)cc2)cc1` (stereo not given) are 6.62%, -1.57%, 2.57%, -1.13% and 0.158%.
In the same order, the values of `CCOC(=O)Cc1ccc(NC(=O)N2Cc3ccccc3-n3cccc3C2c2cccc(C)c2)cc1` (stereo not given) are 1.17%, -0.904%, -2.71%, -3.53% and -4.97%.
The matching figures for `Cc1ccc(Cl)cc1NC(=O)N1Cc2ccccc2-n2cccc2C1c1cccs1` (stereo not given): 3.52%, 0.204%, -0.776%, -1.41% and 4.33%.
With `CC(CCc1ccc(O)cc1)O[C@@H]1O[C@H](CO[C@H]2OC[C@](O)(CO)[C@H]2O)[C@@H](O)[C@H](O)[C@H]1O` (stereo not given in full), the activity change, negative = inhibition in assay [1] was 0%; in assay [2] it was 7.64%; in assay [3] it was 11.1%; in assay [4] it was -2.81%; in assay [5], 4.4%.
The matching figures for `CCOC(=O)CC1(NC(=O)N2Cc3ccccc3-n3cccc3C2C)CCCCC1` (stereo not given): 9.8%, 3.89%, 4.27%, -4.99% and 1.16%.
Take `CN(CC[C@H](N)CC(=O)N[C@H]1C=C[C@@H](n2ccc(N)nc2=O)O[C@@H]1C(=O)O)C(=N)N`: the activity change, negative = inhibition in assay [1] was 5.99%; in assay [2], 6.33%; in assay [3], 10.5%; in assay [4], -4.71%; in assay [5], 4.36%.
In the same order, the values of `O=C(N1CCCCC1Cc1ccccc1)n1cc(-c2ccc(-c3ccccc3)cc2)nn1` (stereo not given) are 3.46%, -5.09%, 5.14%, -37.1% and -10.7%.
The matching figures for `Cc1cccc(NC(=O)c2ccc(C(F)(F)F)cc2C(=O)O)n1`: -0.211%, -3.19%, 1.17%, -15.2% and -2.03%.
The matching figures for `COc1ccccc1CC(=O)N1CCN(C2CCN(C)C2=O)CC1` (stereo not given): -0.34%, -1.74%, 1.02%, -0.481% and 3.83%.
Consider `CSc1ccc(C2c3cccn3-c3ccccc3CN2C(=O)NC(C)C)cc1` (stereo not given), for which the activity change, negative = inhibition was -5.42% in assay [1]; 0% in assay [2]; 1.48% in assay [3]; -5.41% in assay [4]; 1.06% in assay [5].

These data come from PubChem BioAssay AID1745853 (National Center for Advancing Translational Sciences (NCATS), 2022).
